In all, about 150,000 compounds went through this assay and about 540 (0.36%) showed an effect of 50% or more. This is one part of the list.

This assay deals with Plasmodium falciparum. In words: Primary screen in NF54 nanoGlo assay, in single point, at 2uM, 72h; a lower Z score goes with more inhibition. The class given is functional, Erythrocyte. To be noted: timepoint 72 hour.
On to `COc1ccccc1N1CCN(C(=O)c2nn(-c3ccccc3)c3c(=O)n(C)cnc23)CC1`, for which the % Inhibition – broadly, the change of the read-out against control, counted positive when it falls – is -11% and the Z score amounted to 1.01.

Consider `Nc1nc(N2CCC(c3nccn3CC3CC3)CC2)c2nc[nH]c2n1`, for which the “% Inhibition” value is on record as -18% and the Z score came to 3.49.

In the case of `CCC[C@H](C)C(=O)NCC1(C)CCOCC1`, the “% Inhibition” value is -3% and the Z score came out at 0.52.

For the compound `O=C(CC1CCCC1)N1CCC2(CC1)C[C@@H](Cc1nc(-c3cccnc3)no1)CCO2`, the “% Inhibition” value is recorded as -8% and the Z score amounted to 0.95.

As for `COC1([C@H](C)NCc2cc[nH]n2)CCCCC1`, the “% Inhibition” value is given as -13% and the Z score came out at 1.77.

As for `Cc1c(CN2CC(c3ccccc3)(c3ccccc3)CCC2=O)cnn1C`, the “% Inhibition” value is -6% and the Z score is given as 1.1.

With `C[C@H]1CN(C)c2ccccc2CN1C(=O)NC1CCC(=O)NC1C1CCCO1` (stereo partly specified), the “% Inhibition” value is on record as -1% and the Z score is 0.27.

As for `CCc1n[nH]c(NS(=O)(=O)c2ccc3c(c2)S(=O)(=O)CC3)c1Br`, the “% Inhibition” value is recorded as 29% and the Z score was -3.26.

Take `O=C(CCCn1cccn1)NS(=O)(=O)c1ccc2c(c1)CCCC2`: the “% Inhibition” value is recorded as -19% and the Z score is reported as 3.02.

With `O=C(Nc1ccsc1-c1nc(-c2ccc(F)c(F)c2)no1)c1cc(F)ccc1F`, the “% Inhibition” value is -11% and the Z score turned out to be 1.09.

`CCn1c(-c2cccnc2)nc2cc(NC(=O)COC)cc(C(=O)N(C)CC(=O)OC)c21`: the “% Inhibition” value is -16% and the Z score is given as 1.87.

Turning to `COCC(O)CN1CCC(NC2CCCc3cc(F)ccc32)CC1` (stereo unspecified), the “% Inhibition” value came to 1% and the Z score is on record as -0.12.

Regarding `C=CCn1nc(C(=O)N2CCCCC2)c2c1CC[C@H](NC1CCN(Cc3ccccc3)CC1)C2`, the “% Inhibition” value is -10% and the Z score is listed as 1.17.

For `CC(=O)NCC(=O)Nc1ccccc1NCC1CCCCC1`, the “% Inhibition” value is on record as -11% and the Z score was found to be 0.91.

For the compound `C[C@H](NC(=O)CC1CC(C)(C)NC(C)(C)C1)[C@H](O)c1ccc(O)cc1`, the “% Inhibition” value was -13% and the Z score is recorded as 1.25.

For the compound `CC(C)=CCC(C)(C)CNC(=O)NC1CCCCC1`, the “% Inhibition” value was -1% and the Z score is 0.08.

Regarding `O=C(NCC[C@@H](CCO)c1ccccc1)C(=O)NC1CC1`, the “% Inhibition” value worked out at 18% and the Z score is reported as -2.44.

In the case of `CCOc1ccc(OCc2nc(C[C@H]3CCCOC3)n(C(C)(C)C)n2)cc1`, the “% Inhibition” value was -19% and the Z score is given as 2.01.

On to `O=C1COc2cc(C(=O)N3CCC(c4ncon4)CC3)ccc2N1`, for which the “% Inhibition” value is on record as -13% and the Z score is 1.3.

With `CN(C)S(=O)(=O)Nc1cccc(COCC(F)(F)C(F)F)c1`, the “% Inhibition” value is given as -5% and the Z score was 0.52.

Regarding `CC(C)Oc1ccccc1-c1c[nH]c(C(=O)N2CCOCC2)c1`, the “% Inhibition” value is -10% and the Z score was found to be 1.32.

On to `CC(C)CN(CC(C)(C)C)C(=O)c1cnns1`, for which the “% Inhibition” value is -2% and the Z score was found to be 0.23.

For `CCOc1ccc(OC(C)(C)C(=O)OCc2cn3ccccc3c2C#N)cc1`, the “% Inhibition” value is -2% and the Z score worked out at 0.2.

For `CN(CC(=O)Nc1nc(C(F)(F)F)ns1)S(C)(=O)=O`, the “% Inhibition” value is given as 4% and the Z score is listed as -0.59.

For `COc1ccc2cc1Oc1cccc(c1)CO[C@H]1CN(C(=O)C3CCN(C)CC3)C[C@@H]1NC(=O)CN(C)C2`, the “% Inhibition” value was -10% and the Z score is 1.81.

`Cc1cc(C)nc(N(C)CCc2nc3ccccc3[nH]2)n1`: the “% Inhibition” value was -6% and the Z score amounted to 0.89.

As to `COc1cccc(CCNC(=O)c2ccoc2C2CC2)n1`, the “% Inhibition” value is given as -14% and the Z score was determined as 1.16.

For the compound `CCc1nc(C2CCN(Cc3cc(F)ccc3OC(F)F)CC2)n[nH]1`, the “% Inhibition” value came to 13% and the Z score was -1.69.

As to `CCCOc1ccc(CCC(=O)NCc2nccnc2-c2cccnc2)cc1`, the “% Inhibition” value is given as -20% and the Z score came to 2.9.

For the compound `CC(C)CCC1CCCC1NC(=O)C(=O)Nc1ccn(C)n1` (stereo unspecified), the “% Inhibition” value was 2% and the Z score is listed as -0.33.

In the case of `Cc1nc(C)c(COc2c(C)nn(C)c2C)s1`, the “% Inhibition” value is recorded as 32% and the Z score is -3.66.

As for `Cc1noc(C)c1-n1c(CCNc2ccccc2)n[nH]c1=O`, the “% Inhibition” value is recorded as -6% and the Z score is listed as 1.1.

Consider `O=C1CN(c2ccc(CNC(=O)N3CCOCC3)cc2)CCN1`, for which the “% Inhibition” value was 9% and the Z score is recorded as -1.16.

As to `CC(=O)Nc1ccc(S(=O)(=O)Nc2ncn(Cc3ccc(Cl)cc3)n2)cc1`, the “% Inhibition” value was 27% and the Z score was -3.57.

As for `COc1cccc(OC)c1CN1CCC2(CC1)C[C@@H]2C(=O)N(C)Cc1cscn1`, the “% Inhibition” value was -3% and the Z score was 0.39.

Consider `C[C@@H](C(=O)N(C)C)N(C)Cc1cnc(NCc2ccccc2)nc1`, for which the “% Inhibition” value was 5% and the Z score was -0.99.

Regarding `CCOC(=O)C1CCCN(C(=O)C2CC(c3cccc(C)c3)CN(C(C)=O)C2)C1` (stereo unspecified), the “% Inhibition” value was -7% and the Z score stood at 1.14.

With `O=C1CCC2(CCN1Cc1ccccc1)CCN(C(=O)c1cccc(F)c1)CC2`, the “% Inhibition” value stood at 5% and the Z score is reported as -0.54.

For `N#Cc1ccc2nc(NCCn3ccnc3)ccc2c1`, the “% Inhibition” value is listed as -7% and the Z score is given as 1.09.

On to `O=C(NCCc1nnc2ccccn12)Nc1nncs1`, for which the “% Inhibition” value is given as -1% and the Z score is 0.11.

Regarding `COCCC1(CNC(=O)CCC(=O)c2ccccc2)CC1`, the “% Inhibition” value is on record as 0% and the Z score is -0.08.

For the compound `CCc1nc(N(CCOC)CCC(=O)NCc2ccco2)c2cc(Cl)cc(Cl)c2n1`, the “% Inhibition” value is reported as -9% and the Z score is 1.7.

In the case of `C[C@H](NC(=O)c1cc(C2CC2)no1)c1ncon1`, the “% Inhibition” value was -7% and the Z score came out at 0.96.
